# The list shows a part of the results.
# B1: InvD YPIII (Yersinia pseudotuberculosis), B1JSC0 (protein)
# chain: MIKYFSFFKKPEPIVGILPNRQSHHILPTHIRRVAWGTLLLQLFIPLSVSFSPAIAAMKASKADTMVSYSSTEPYVLGSGETVAMVAKKYGITVDELKKINIYRTFSRPFTALTTGDEIDIPRKASPFSVDNNKDNRLSVENTLAGHAVAGATALSNGDVAKSGERMVRSAASNEFNNSAQQWLSQFGTARVQLNINDDFHLDGSAADVLIPLYDNEKSILFTQLGARNKDSRNTVNMGAGVRTFQGNWMYGANTFFDNDLTGKNRRIGVGAEAWTDYLKLSANNYFGITDWHQSRDFIDYNERPANGYDLRAEAYLPSYPQLGGKAMYEKYRGDDVALFGKDNRQKNPHAITAGVNYTPIPLVTIGAEHRAGKGGQNDSNINFQLNYRLGETWQSHIDPSAVAASRTLAGSRYDLVERNNHIVLDYQKQNLVRLSLPDSLAGDPFSQLSVTAQVTATHGLERIDWQSAELMAAGGVLKQTSKNGLEITLPEYQMNRTGGNSYILNAIAYDTQGNASSQASMLITVNAQKINIANSTLVAVPINIEANNSDTSVVTLTLKDDNNIPVTGQDVTFLSPLGTLSAMTDSGNGVYTATLTAGTVSGTTAVSSNINGSALDMTPATVTLNGNSGELSITHSMLVAAPVNIEANGSDTSVVTLTLRDSNNNPVTGQTVTFAGTLGTLGAVTEGSSGVYTATLTAGIMVGTSSITASVNSTALGVTPATVTLNGDSGNLSTTNSTLVAAPVNIEANSSDTSVVTLTLRDNNNNPVTGQTVVFTSTLGTLGNVTEQASGVYTATLTAGTVSGVASLSVSVGGNALGVTPATVTLNGDSGNLSTTNSTLVAAPVNIEANSSDTSVVTLTLRDNNNNPVTGQTVNFAGTLGTLGTVSEGSSGVYTTTLTAGTVAGVASLSVNVGGNALGVTPATVTLNGNSGNLSATNSTLVAAPVNIEANSSDTSVVTLTLRDNNNNPVTGQTVAFTSTLGTLGNVTEQASGVYTATLTAGTVSGVASLSVSVNSNALGVTPATVTLNGDSGNLSTTNSTLVAAPVNIEANSSDTSVVTLTLRDNNNNPVTGQTVAFTSTLGTLGNVTEQASGLYTATLTAGTVSGVASLSVNVGGNALGVTPATVTLNGDSGNLSATNSTLVAAPVNIEANSSDTSVVTLTLRDNNNNPVTGQTVAFTSTLGTLGNVTEQASGLYTATLTAGTVSGVASLSVNVGGTALGVTPATVTLNGDSGNLSTTNSTLVAAPVNIEANSSDTSVVTLTLRDNNNNPVTGQTVAFTSTLGTLGNVTEQASGLYTATLTAGTVSGVASLSVSVNSTALGVTPATVTLNGDSGNLSTTNSTLVAAPVNIEANSSDTSVVTLTLRDNNNNPVTGQTVAFTSTLGTLGNVTEQASGVYTATLTAGTVAGVASLSVNVGGNALGVTPATVTLNGDSGNLSTTNSTLVAAPVNIEANSSDTSVVTLTLRDNNNNPVTGQTVAFTSTLGTLGNVTEQASGVYTATLTAGTVSGVASLSVSVGSSALGVTPATVTLNGDSGNLSTTNSTLVAAPVNIEANNSDTSVVTLTLRDNNNNPVTGQTVAFTSTLGTLGNVTEQASGVYTATLTAGTVSGVASLSVSVNSNALGVTPATVTLNGDSGNLSTTNSTLVAAPVNIEANSSDTSVVTLTLRDNNNNPVTGQTVVFTSTLGTLGNVTEQASGLYTATLTAGTVSGVASLSVSVGGNALGVTGNITLAPGALDAARSILAVNKPSINADDRIGSTITFTAQDAQGNAITGLDIAFMTDLENSQIMTLVDHNDGTYTANINGTQTGIANIAVQSSGATIAGLAATMVTITPGAWNTTQATPVMTVALPITTCQSSSGVYKRYYIGIVTHELYDNYGNEISGILTYNLGAGRYTTVTSQNSSVSGSNGLTRRSNSPVSHFILTSDAYTSQAACYAERIANVNVTITVTAITDDFKTSAVNKVFILGTGSN
# How the values were obtained:
# Assay in all cases: glycan array binding signal (z-score within array); higher = stronger binding
# Settings in all cases: glycan notation: IUPAC condensed, linker removed
# [1] = target: Neu5Ac(a2-6)Gal(b1-4)GlcNAc(b1-2)Man(a1-6)[Man(a1-3)]Man(b1-4)GlcNAc(b1-4)GlcNAc
# Method in brief: (§1)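 Glycan array data came from 3228 arrays in the Consortium for Functional Glycomics database, and only arrays with an available protein sequence were kept. Glycan names were put into IUPAC-condensed notation, and columns mapping to the same glycan were averaged. The binding signal is a within-array Z-score, averaged across arrays of one protein sequence run at different concentrations or buffers and across linkers. A negative Z-score can be read as non-binding.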
# [2] = target: Neu5Ac(a2-6)Gal(b1-4)GlcNAc(b1-2)[Neu5Ac(a2-6)Gal(b1-4)GlcNAc(b1-4)]Man(a1-3)[GlcNAc(b1-4)][Neu5Ac(a2-6)Gal(b1-4)GlcNAc(b1-2)[Neu5Ac(a2-6)Gal(b1-4)GlcNAc(b1-6)]Man(a1-6)]Man(b1-4)GlcNAc(b1-4)GlcNAc
# Method in brief: as §1
# [3] = target: Neu5Ac(a2-6)Gal(b1-4)GlcNAc(b1-2)[Neu5Ac(a2-6)Gal(b1-4)GlcNAc(b1-4)]Man(a1-3)[GlcNAc(b1-4)][Neu5Ac(a2-6)Gal(b1-4)GlcNAc(b1-4)Man(a1-6)]Man(b1-4)GlcNAc(b1-4)GlcNAc
# Method in brief: as §1
# [4] = target: Neu5Ac(a2-6)Gal(b1-4)GlcNAc(b1-2)[Neu5Ac(a2-6)Gal(b1-4)GlcNAc(b1-6)]Man(a1-6)[Neu5Ac(a2-6)Gal(b1-4)GlcNAc(b1-2)Man(a1-3)][GlcNAc(b1-4)]Man(b1-4)GlcNAc(b1-4)GlcNAc
# Method in brief: as §1
# [5] = target: Neu5Ac(a2-6)Gal(b1-4)GlcNAc(b1-3)Gal(b1-3)GlcNAc
# Method in brief: as §1
# [6] = target: Neu5Ac(a2-6)Gal(b1-4)GlcNAc(b1-3)Gal(b1-4)GlcNAc
# Method in brief: as §1
# [7] = target: Neu5Ac(a2-6)Gal(b1-4)GlcNAc(b1-3)Gal(b1-4)GlcNAc(b1-2)Man(a1-3)[Neu5Ac(a2-6)Gal(b1-4)GlcNAc(b1-3)Gal(b1-4)GlcNAc(b1-2)Man(a1-6)]GalNAc
# Method in brief: as §1
# [8] = target: Neu5Ac(a2-6)Gal(b1-4)GlcNAc(b1-3)Gal(b1-4)GlcNAc(b1-3)Gal(b1-4)GlcNAc
# Method in brief: as §1
# [9] = target: Neu5Ac(a2-6)Gal(b1-4)GlcNAc(b1-3)Gal(b1-4)GlcNAc(b1-3)Gal(b1-4)GlcNAc(b1-2)Man(a1-3)[Neu5Ac(a2-6)Gal(b1-4)GlcNAc(b1-3)Gal(b1-4)GlcNAc(b1-3)Gal(b1-4)GlcNAc(b1-2)Man(a1-6)]GalNAc
# Method in brief: as §1
# [10] = target: Neu5Ac(a2-6)Gal(b1-4)GlcNAc(b1-3)Gal(b1-4)GlcNAc(b1-3)GalNAc
# Method in brief: as §1
# [11] = target: Neu5Ac(a2-6)Gal(b1-4)GlcNAc(b1-3)Gal(b1-4)GlcNAc(b1-3)[Neu5Ac(a2-6)Gal(b1-4)GlcNAc(b1-3)Gal(b1-4)GlcNAc(b1-6)]GalNAc
# Method in brief: as §1
# [12] = target: Neu5Ac(a2-6)Gal(b1-4)GlcNAc(b1-3)Gal(b1-4)GlcNAc(b1-6)[Gal(b1-3)]GalNAc
# Method in brief: as §1
# [13] = target: Neu5Ac(a2-6)Gal(b1-4)GlcNAc(b1-3)Gal(b1-4)[Fuc(a1-3)]GlcNAc(b1-3)Gal(b1-4)[Fuc(a1-3)]GlcNAc
# Method in brief: as §1
# [14] = target: Neu5Ac(a2-6)Gal(b1-4)GlcNAc(b1-3)GalNAc
# Method in brief: as §1
# [15] = target: Neu5Ac(a2-6)Gal(b1-4)GlcNAc(b1-3)[Neu5Ac(a2-6)Gal(b1-4)GlcNAc(b1-6)]GalNAc
# Method in brief: as §1
# [16] = target: Neu5Ac(a2-6)Gal(b1-4)GlcNAc(b1-6)GalNAc
# Method in brief: as §1
# [17] = target: Neu5Ac(a2-6)Gal(b1-4)GlcNAc(b1-6)[Gal(b1-3)GlcNAc(b1-3)]Gal(b1-4)Glc
# Method in brief: as §1
# [18] = target: Neu5Ac(a2-6)Gal(b1-4)GlcNAc(b1-6)[Gal(b1-3)]GalNAc
# Method in brief: as §1
# [19] = target: Neu5Ac(a2-6)Gal(b1-4)GlcNAc6S
# Method in brief: as §1
# Neu5Ac(a2-6)GalNAc = target: Neu5Ac(a2-6)GalNAc
# Method in brief: as §1
# [20] = target: Neu5Ac(a2-6)GalNAc(b1-4)GlcNAc
# Method in brief: as §1
# [21] = target: Neu5Ac(a2-6)GalNAc(b1-4)GlcNAc6S
# Method in brief: as §1
# [22] = target: Neu5Ac(a2-6)GlcNAc(b1-4)GlcNAc
# Method in brief: as §1
binder,measurement,setting,value
B1,glycan array binding signal (z-score),[1],-0.151
same,glycan array binding signal (z-score),[2],0.031
same,glycan array binding signal (z-score),[3],-0.265
same,glycan array binding signal (z-score),[4],-0.206
same,glycan array binding signal (z-score),[5],-0.292
same,glycan array binding signal (z-score),[6],-0.017
same,glycan array binding signal (z-score),[7],-0.414
same,glycan array binding signal (z-score),[8],-0.164
same,glycan array binding signal (z-score),[9],0.573
same,glycan array binding signal (z-score),[10],-0.132
same,glycan array binding signal (z-score),[11],0.37
same,glycan array binding signal (z-score),[12],-0.125
same,glycan array binding signal (z-score),[13],-0.174
same,glycan array binding signal (z-score),[14],-0.132
same,glycan array binding signal (z-score),[15],-0.311
same,glycan array binding signal (z-score),[16],0.072
same,glycan array binding signal (z-score),[17],-0.252
same,glycan array binding signal (z-score),[18],0.289
same,glycan array binding signal (z-score),[19],-0.259
same,glycan array binding signal (z-score),Neu5Ac(a2-6)GalNAc,-0.203
same,glycan array binding signal (z-score),[20],-0.312
same,glycan array binding signal (z-score),[21],-0.154
same,glycan array binding signal (z-score),[22],-0.286

# From the supplement of paper PMC8728848
